The text below walks through data of the RNAGym collection of RNA variant scans (doi:10.7554/elife.90254).

Read counts are not given, so values of variants with three or more changes are uncertain.

To fix the notation:
B1: LINE1-mini (parent)
chain: GGCAGAGCUCAACACAGCGUGGCAAAGUGGCUGUGGCUAGACUGCC

Variants of B1 are the subject of the data set. As to the kind of experiment: self-cleavage, relative activity (ratio to wild type); higher = more cleavage; in vitro, sequencing; the parent is a self-cleaving ribozyme.
Regarding C3U G5C C18A, the self-cleavage amounted to 0.13. For C3U G5U C8G G33U, the self-cleavage turned out to be 0.22. The figure for C3U C18G U20A is 0.07; for C3U G17C G19C G36C it is 0.11. The figure for C3U C10U C18U G29C G33U U43C is 0.01; for C3U G30A C37G C46U it is 0.1; for A4C A6U G7U U32C it is 0.62. To C3U U38A G40A belongs 0.11. On to C3U C13U U28C G36U, for which the self-cleavage came to 0.27. The figure for C3U C10U U20A A24G G29A C45G is 0.07; for C3U C10U A16C G22C A24U C31U A39C G40C C45A it is 0.01; for C3U C18U G44C it is 0.18. The figure for A4C A6G G40U C46G is 0.22; for C3U G19C C45G it is 0.04.

As for C3U G21A G22U, the self-cleavage worked out at 0.1. The figure for C3U G5U C8U C42A C46G is 0.09; for C3U G22C A26C G27A it is 0.2. Take A4C A6G G22C C45A C46G: the self-cleavage was determined as 0.04.

Consider C3U C15A G33C, for which the self-cleavage was 0.06. C3U U9C A16U G33A A41G C45G: the self-cleavage is 0.01. The figure for C3U G7C G21U U38C G40C is 0.04; for C3U C13A G35U G40A it is 0.09. C3U C23U A24G: the self-cleavage stood at 0.58. The figure for C3U C15U U20G A41U C45G is 0.16; for C3U C10G G33A it is 0.03. To C3U C10G G33U belongs 0.01.

With C3U U20G U43C, the self-cleavage stood at 0.04.

C3U C18U G29C U38G: the self-cleavage is 0.

Regarding C3U C15G G40U, the self-cleavage turned out to be 0.02. In the case of C3U G21U G27A, the self-cleavage was found to be 0.05.

As to C3U G21A A24C A25G A26C U28G, the self-cleavage was 0.25. For the variant C3U G7A A14U, the self-cleavage amounted to 0.51.

In the case of C3U C18G C31A, the self-cleavage is 0.01. C3U C37U C42A: the self-cleavage is 0.03. For the variant C3U G5U A14C A24G A39G C45U, the self-cleavage is 0.13.

For C3U C23A U34A C45A C46U, the self-cleavage came to 0.04. The figure for C3U C10G C13A G17A G30C is 0.02; for C3U G27U U38C it is 0.12; for C3U C13G G17C C23U A25C U43G C46A it is 0.05. To C3U G17C G19C G30C C45A belongs 0.2; to A4C A6C U9A C23U G30U, 0.04; to C3U G5C C18A C46A, 0.05.

For the variant C3U C23A G29C G36U C37U A41U, the self-cleavage was 0.01. In the case of C3U G19C G27C U28C C37A, the self-cleavage is 0.01.

C3U G33C U34A: the self-cleavage was determined as 0.15. In the case of C3U G7A G35C, the self-cleavage was 0.07. To C3U C15A A16C A25C belongs 0.07; to C3U U20C G21C C23G G36A C46A, 0.02; to C3U G40C G44A, 0.17. Regarding C3U C13G G21A U34A C42A, the self-cleavage is 0.1. To C3U G40A C46G belongs 0.06; to C3U C18U G35U A39U, 0.14.

As to C3U C23A C37U, the self-cleavage worked out at 0.06.

Turning to C3U G5U U38C, the self-cleavage amounted to 0.02. To C3U G5A A6C A11G G30C U34C belongs 0.04; to C3U G5U U9G C13U C23G U32C C45U, 0.02; to C3U C13A U20C A26C G30U G36U, 0.09. The figure for C3U G5C G21A C31A is 0; for C3U G33C U38G it is 0.03; for C3U G5U G29U it is 0.09. For C3U C15U C45A, the self-cleavage worked out at 0.11. To C3U G19U G40A belongs 0.16. To C3U C31G G33C belongs 0.01; to C3U U28A G29C, 0.12; to C3U U9C G19C G36C U43C, 0.02. Turning to C3U G5C G40C, the self-cleavage stood at 0.08.

Consider C3U G27C C42A, for which the self-cleavage was found to be 0.03. To A4C A6C G30U C31A U38A belongs 0.03; to C3U G17A A26U U32C, 0.4. To C3U C10U A16U A24U C37A belongs 0.07. C3U U9G G29U G30A C37U C42G: the self-cleavage amounted to 0.43. C3U G5C A14C U28G: the self-cleavage came out at 0. To C3U C13U C15U G22C A26U belongs 0.47; to C3U C18A G21A, 0.11; to C3U U9A G17A A25G G30A, 0.09. To C3U G17A G22A A26C belongs 0.14. To C3U G22U C23A U28A belongs 0.23.

As for C3U C18U U28C G29C, the self-cleavage turned out to be 0.05. The figure for C3U C37A A39U is 0.29. To C3U U32A G40C C45U belongs 0.04; to C3U C18U G33U, 0.09; to C3U C15A A25C G44A, 0.02. Regarding C3U G5C C8A U9G C13G G21U, the self-cleavage was determined as 0.47.

Take C3U G7U A26C U32A: the self-cleavage stood at 0.13. The figure for C3U C15A C46A is 0.09; for A4C A6C C8U U9C C15A it is 0.06. The figure for C3U U9G G19U C23U C37U is 0.13; for C3U U28G A39U C42U it is 0.28. Regarding C3U U32A C46U, the self-cleavage turned out to be 0.02. For C3U G5A C31A, the self-cleavage turned out to be 0.1. The figure for C3U G5U C31A G35U U38G is 0.18; for C3U C13U G19C C45A it is 0.02. The figure for C3U G27C C37A is 0.07; for C3U G7A U28A G30C U32G G35U it is 0.14. In the case of C3U C10U C37U, the self-cleavage was determined as 0.07. The figure for C3U G5C C10G U38C is 0.05; for C3U C23A A25G it is 0.2; for C3U G5U C18U U32G C42A it is 0.05. In the case of C3U G5U C13A C18U, the self-cleavage was 0.06. The figure for C3U G5U A24U is 0.08; for C3U G5U A24G it is 0.57; for C3U G7C C8A A12G A26U it is 0.01. Take C3U C37U U38C: the self-cleavage is 0.04. For the variant C3U C37U U38G, the self-cleavage was found to be 0.03. The figure for C3U G7C A11U A14C is 0.07. On to C3U C18G G35C, for which the self-cleavage amounted to 0.24. To C3U C23A A24U U32A belongs 0.08. With C3U U9C A14G U34A, the self-cleavage was 0.06. The figure for A4C A6G C10G A26U U43G C45A is 0; for C3U U9A C10A U20C G21C it is 0.02; for C3U G29A G35U it is 0.16.

On to C3U G7C A11U U20A, for which the self-cleavage amounted to 0.01. In the case of C3U U28G A39U G40C U43G, the self-cleavage is 0.01.

Turning to C3U U20G A24U A25U G35A, the self-cleavage turned out to be 0.1. Turning to C3U G7C A25U G29A C42A C45U, the self-cleavage turned out to be 0.01. As for C3U G7U A25C G33A, the self-cleavage amounted to 0.14. The figure for C3U G5U C8U U9C G19U is 0.11.

C3U G27C G33U U38G G40A: the self-cleavage came to 0.02. To C3U G40U A41C belongs 0.11; to C3U C18U G30C G33A, 0.13. As for C3U G27U C37A, the self-cleavage stood at 0.01. The figure for C3U G36U C46A is 0.31; for C3U G36U C46G it is 0.03; for C3U G7U G44A it is 0.03. On to C3U C15G U20C A24G C31U C37G, for which the self-cleavage turned out to be 0.09. To C3U G7A C10U belongs 0.44; to C3U G7C G19A G35U, 0.03. To C3U G21C C45A belongs 0.11; to A4C A6C U9G G29C, 0.09; to C3U G5A A14C, 0.2. To C3U G5A A41C belongs 0.07; to C3U C18U G21C C42U G44U, 0.14. For C3U G7A G44U, the self-cleavage came to 0.08. The figure for C3U G33A A41C is 0.05; for C3U G7A G21U it is 0.09; for C3U G7U C42A it is 0.1. The figure for C3U G27U G44C is 0.17; for C3U G17U G36U it is 0.07.

With C3U C18U U20A G33A, the self-cleavage was 0.07. The figure for C3U G30C C42U U43A is 0.11; for C3U C31A A39G it is 0.02. The figure for C3U G17U G36A C37G is 0.05; for C3U G30A G44C C45A it is 0.08; for C3U U20A C23A G30A it is 0.31. The figure for C3U C13U G17U C18G A39C G40C is 0.05; for C3U C18A C23U it is 0.1; for C3U C18G C45A it is 0.06. On to C3U C31U G44C, for which the self-cleavage was found to be 0.02. To A4C A6U C10A C23A belongs 0.04; to C3U C10U U28A G40C, 0.02; to C3U G5C C13G G17A U20C, 0.05. As to C3U C23A C42G, the self-cleavage was determined as 0.13. The figure for C3U C10U A12G A25U U28G C37G is 0.01; for A4C A6C U9A C10G it is 0.02. To A4C A6G A11U A16C U34A belongs 0.04; to C3U U20A G21U, 0.08. The figure for C3U C23U A25G G29A is 0.62; for C3U C18U C45U it is 0.07; for C3U G5U C8A G35U it is 0.11. With C3U C13U A25C G36U U38G A41G C45A, the self-cleavage was determined as 0.04.

As to C3U C18G C46G, the self-cleavage amounted to 0.21. The figure for C3U G22U A39U G40C is 0.08.

For the variant C3U C13U U20A, the self-cleavage amounted to 0.16. The figure for C3U G27A U32A is 0.2; for C3U G5A G7C U9G G30U it is 0.05. To C3U C13U C23U U28C belongs 0.12; to C3U G27C G36C A41U U43A, 0.
